According to PubChem BioAssay AID2100 (National Center for Advancing Translational Sciences (NCATS), 2009):
Hit rate of the full screen: of about 300,000 compounds, about 1,200 (0.4%) were called active. The shares of active, inactive and inconclusive entries below differ from those in the screen. The call rests on the fitted dose curve; in most records, active means well fitted inhibition curve with a large enough effect; inconclusive means small, poorly fitted or top-dose-only effect, or another doubt; inactive means no such curve, though single readings can be large or run the other way. Potencies of inconclusive entries are doubtful fits and often do not repeat.

molecular target: Lysosomal alpha-glucosidase (Homo sapiens) (UniProt P10253); experiment: qHTS Assay for Inhibitors and Activators of Human alpha-Glucosidase Cleavage of Glycogen; conditions: recombinant GAA, glycogen substrate, Amplex Red glucose oxidase fluorescence; activity change, negative = inhibition: at 76.4 µM (top of the series) unless noted;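 on activity change, negative = inhibition: 0% = full enzyme reaction and -100% = no-enzyme basal signal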
Excerpt: NIH Chemical Genomics Center [NCGC] NIH Molecular Libraries Probe Production Centers Network [MLPCN] MLPCN Grant: R03 MH084841-01 Assay Submitter (PI): Wei Zheng NCGC Assay Overview: Alpha-glucosidase is responsible for the hydrolysis of terminal, non-reducing 1,4-linked alpha-D-glucose residues, which releases alpha-D-glucose. It is a lysosomal hydrolase that is required for the degradation of a small percentage (1-3%) of cellular glycogen in humans. Deficiency of this enzyme results in glycogen-storage disease type II (GSDII), also referred to as Pompe disease, an autosomal recessive disorder. Structurally normal glycogen is accumulated in the lysosomes and cytoplasm in affected patients, primarily in muscle tissues. Excessive glycogen storage within lysosomes may interrupt normal functioning of other organelles and leads to cellular injury. In turn, this leads to enlargement and dysfunction of the entire organ involved (eg: cardiomyopathy and muscle weakness). It has been reported that the improper folding and trafficking of alpha-glucosidase resulting from genetic mutations may account for a significant number of Pompe patients. […] We optimized this alpha-glucosidase assay in 1536-well plate format for identification of novel small molecule inhibitors or activators with structures other than the sugar analogs in order to develop new pharmacological chaperones. Previous assays of alpha-Glucosidase have utilized a non-natural fluorescent substrate to probe enzyme activity. The present assay measures enzyme activity on glycogen using a coupled-assay system to glucose oxidase.
NCGC Assay Protocol Summary: This is an enzyme assay using glycogen from bovine liver (Sigma catalog #: G0885) as the substrate and recombinant human alpha-glucosidase as the enzyme preparation. Upon hydrolysis of the substrate, the glucose product can be detected using the Amplex Red Glucose Oxidase Assay Kit (Invitrogen catalog #: A22189). The product of this reaction can be read with a fluorescence plate reader with an excitation at 573 nm and an emission at 610 nm. Data were normalized to the controls for basal activity (without enzyme) and 100% activity (with enzyme). The AC50 values were determined from concentration-response data modeled with the standard Hill equation. Assay buffer for enzyme reaction: 50 mM citric acid (titrated with potassium phosphate to pH 5.0), 0.01% Tween-20 (pH 5.0 is an optimal condition for this enzyme assay) Assay buffer for Amplex Red reaction: Tris-HCl, pH 7.5 1536-well assay protocol for the alpha-glucosidase assay: (1) Add 2 ul/well alpha-glucosidase enzyme solution (4 nM final) (2) Add 23 nL compounds in DMSO solution. The final titration was 0.7 nM to 77 uM. (3) Add 1 ul of glycogen substrate solution (30 ug) (4) Incubate at 37 C for 40 min (5) Add 2 ul tris-HCl buffer with Amplex Red reagents (6) Incubate 45 min at room temperature. (7) Detect the assay plate in a ViewLux plate reader (PerkinElmer) with Ex=573 nm and Em=610nm. Keywords: Alpha-glucosidase, Pompe Disease, pharmacological chaperone, chaperone therapy, high throughput screening, alpha-glucosidase inhibitor, MLSMR, MLSCN, NIH Roadmap, qHTS and NCGC
Potency means the concentration at half of the fitted maximal effect.

Row | Compound | Potency | activity change, negative = inhibition
1 | NNC(=O)c1ccc2ccccc2n1 | inconclusive: 31.4 µM [inhibitor, single point] | 
2 | Cc1nc(-c2ccc(O)c(O)c2)cs1 | inconclusive: 39.5 µM [inhibitor, single point] | 
3 | NC(=O)N/N=C/c1coc2ccc(O)cc2c1=O | active: 15.8 µM | 
4 | CCOC(=O)C(=NC(C)C)NNc1cc(Cl)ccc1Cl | inconclusive: 35.5 µM [inhibitor, single point] | 
5 | COc1cccc(C(=O)Oc2ccc(/C=N/Nc3ccc(C(=O)O)cc3)cc2OC)c1 | inconclusive: 25.1 µM [inhibitor, single point] | 
6 | Cc1ccc(C)c(S(=O)(=O)N/N=C/c2ccc(N(C)C)cc2)c1 | inconclusive: 22.4 µM [inhibitor, partial curve] | 
7 | O=C(NCC(=O)N1CCCC(C(F)(F)F)C1)c1ccc(Oc2ccccc2)cc1 (centres undefined) | inconclusive: 35.5 µM [inhibitor, single point] | 
8 | CC(=O)c1ccc2c(c1)Nc1ccccc1S2 | active: 31.4 µM | 
9 | Cc1c(Nc2ccc(C=O)cc2)c(=O)n(-c2ccccc2)n1C | inconclusive: 39.8 µM [inhibitor, partial curve] | 
10 | CN(CC(=O)Nc1ccc(S(N)(=O)=O)cc1)Cc1ccccc1F |  | inconclusive: 35.1% [activator]
11 | COc1ccc(/C=C\c2onc(C)c2S(=O)(=O)N2CCC(C(=O)Nc3cccc(Cl)c3)CC2)cc1 |  | inactive: 16.7% [at 76.3 µM]
12 | COc1cc(C2CC(=O)NC3=C2C(=O)CC(C)(C)C3)cc(OC)c1O (centres undefined) | inconclusive: 7.03 µM [inhibitor, full curve] | 
13 | O=C1SC(c2ccccc2)=C/C1=C\N1CCCCC1 | inconclusive: 14 µM [inhibitor, partial curve] | 
14 | c1csc(-c2nc3ccccn3c2NC2CCCCC2)c1 | inconclusive: 25.1 µM [inhibitor, partial curve] | 
15 | Clc1cccc(N/N=C/c2ccc(N3CCOCC3)s2)c1 | inconclusive: 25.1 µM [inhibitor, partial curve] | 
16 | CCC(C)c1ccc(O)c(NC(=O)c2cccnc2)c1 (centres undefined) | inconclusive: 39.5 µM [inhibitor, single point] | 
17 | COc1ccc(-c2c(C)nn3c(N4CCN(c5ccccc5)CC4)cc(C)nc23)cc1OC |  | inactive: 6.93% [at 76.3 µM]

Row | Compound | Potency | activity change, negative = inhibition
18 | CCOc1ccccc1NC(=O)c1c(NC(=O)COc2ccccc2)sc2c1CCCCC2 |  | inactive: -2.27% [at 76.3 µM]
19 | CSc1ccc(CCNC(=O)c2cnn(-c3ccccc3)c2-n2cccc2)cc1 | inconclusive: 44.7 µM [inhibitor, single point] | 
20 | Nc1n[nH]c(=S)n1/N=C1/C(=O)Nc2ccccc21 | inconclusive: 19.8 µM [inhibitor, partial curve, poor fit] | 
21 | COC(=O)CN1C(=O)[C@H]2[C@@H](c3ccc(C)o3)N3C(=O)CN(CCO)C(=O)[C@@]3(C)[C@H]2C1=O | inconclusive: 50.1 µM [inhibitor, single point] | 
22 | CCc1c(C(=O)NNC(=S)NCCc2ccccc2)csc1C | inconclusive: 25.1 µM [inhibitor, partial curve] | 
23 | CCS(=O)(=O)c1ccc2oc(=O)c(/C=C(\O)c3ccc(Cl)cc3)nc2c1 | inconclusive: 3.55 µM [inhibitor, full curve] | 
24 | CC(C)COc1ccc(N)cc1OCC(C)C | inconclusive: 31.6 µM [inhibitor, single point] | 
25 | COCCCNC(=S)N/N=C/c1ccccc1O | inconclusive: 31.6 µM [inhibitor, single point] | 
26 | CCOC(=O)c1c(N)sc2c(O)c(Br)ccc12 | inconclusive: 20 µM [inhibitor, partial curve] | 
27 | COc1cccc(C(=O)NNC2=CC(=O)CC(C)(C)C2)c1 | inconclusive: 12.5 µM [inhibitor, partial curve] | 
28 | CC(=O)C(=Nc1ccccc1Cl)NNc1ccc(Cl)cc1 | inconclusive: 39.8 µM [inhibitor, single point] | 
29 | [O-]/[N+](=C\c1ccccc1)[C@@H]1CCCC[C@@H]1/[N+]([O-])=C/c1ccccc1 | active: 39.8 µM | 
30 | CC(=O)c1c(C)oc2ccc(O)c(CN3CCOCC3)c12 |  | inconclusive: 33.4% [activator]
31 | COC(=O)/C(=C/Nc1ccc(O)cc1)[N+](=O)[O-] | inconclusive: 14.1 µM [inhibitor, partial curve] | 
32 | COc1ccc(N2CC(C(=O)N[C@@H](C)C(=O)NCc3ccccc3OC)CC2=O)cc1 (some centres undefined) | inconclusive: 11.2 µM [inhibitor, partial curve] | 
33 | CCCn1nnc(NC(=O)C(C)Oc2ccc(Cl)cc2Cl)n1 (centres undefined) | inconclusive: 7.08 µM [inhibitor, single point] | 
34 | COc1ccc(-n2cc(CNCCc3ncc(C)[nH]3)c(-c3ccccc3Cl)n2)cc1 | active: 7.08 µM | 
